Data on 19 variants can be found in the RNAGym collection of RNA variant scans (doi:10.1073/pnas.2313332121).

Variants at the background level are over-represented here.

B1: TPR 5TU (parent)
chain: GGAUCUUCUCGAUCUAACAAAAAAGACAAAUCUGCCACAAAGCUUGAGAGCAUCUUCGGAUGCAGAGGCGGCAGCCUUCGGUGGCGCGAUAGCGCCAACGUUCUCAACUAUGACACGCAAAACGCGUGCUCCGUUGAAUGGAGUUUAUCAUG

This data set covers variants of B1. In words: polymerase ribozyme fitness, log enrichment relative to wild type (log ratio); higher = more active; in vitro selection for triplet polymerase activity. In short, it runs like this:
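Genotype fitness is the logarithm of its enrichment divided by wild-type enrichment, using inverse-variance-weighted averages of replicates. That logarithm is base 2. Enrichment was measured by Illumina sequencing of input and output libraries from one triplicate in vitro selection round, with frozen incubation at −7 °C, on PCR-built, transcribed mutant libraries of each subunit of a heterodimeric triplet polymerase ribozyme, retaining genotypes with ≥10 input reads and ≥1 read per output.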
As to GGAUCUUCUCGAUCUAACCAAAAAGACAAAACUGCCAAAAAGCUUGAGAGCAUCUUCGGAUGCAGAGGCGGCAGCCUUCAGUGGCGCGAUAGCGCCAUCGUUCUCAACUAUGACACGCAAAACGCGUGCUCCGUUGAAUGGAGUUUAUCAUG [A19C U31A C38A G80A A98U], the “polymerase ribozyme fitness (log ratio)” value was -0.863.

For the variant GGAUCUUCUCGAUCUAACCAAAAAGACAAAUCUGCCACAAAGCUUGAGAGCAUCGUCGGAUGCAGACGCGGCAGCCUGCGGUUGCGCGAUAGAGCCAACGUACUCAACUAUGACACGCAACACGCGUGCUCCGUUGAAUGGAGUUUAUCAUG [A19C U55G G67C U78G G83U C93A U102A A121C], the “polymerase ribozyme fitness (log ratio)” value was no more than -4.2.

Turning to GGAUCUUCUCGAUCUAACGAAAUAGACAAAUCUGCCACAAAGCUUGAGAGCAUCUUCGGAUGCAGAGGCGGCAGCCUUCGGUGGCGCGAUAACGCCAACGUUCUCAACUAUGACACGCAAAACGCGUGCUCCGUUGAAUGGAGUUUACCAUG [A19G A23U G92A U148C], the “polymerase ribozyme fitness (log ratio)” value is no more than -4.2.

Take GGAUCUUCUCGAUCUAACGAAAAAGACAAUUCUGCCACAAAGCUUGAGAGCAUCUUCGGAUGCAGGGGCGGCAACCUUCGGUGGCGCGAUAGCGCCAACGUUCUUAACUAUGACACGCAAUACGCGUGAUCCGUUGAAUGGAGUUUAUCAUG [A19G A30U A66G G74A C105U A121U C129A]: the “polymerase ribozyme fitness (log ratio)” value is no more than -4.2.

Consider GGAUCUUCUCGAUCUAACGAAAAAGACAAAUCUGCCCCAAAGCUUGAGAGCAUCUUCGGAUGCAGAGGCGGCAGCCUUCGGUGGCGCGAUAGGGCCAACGUUCUCAGCUAUGACACGCAAAUCGAGUGCUCCGUUGAAUGGAGUUUAUCAUG [A19G A37C C93G A107G A122U C125A], for which the “polymerase ribozyme fitness (log ratio)” value is no more than -4.2.

Consider GGAUCUUCUCGAUCUAACCAAAAAGACAAAUCUGCCACAAAGCUUGAGAGCAUCUUCGGAUGCAGAGGCGGCAGCCUUCGGUGGCGCGAUAGCGCCAACGUUCUCAACUAUGACACGCAAAACGCGUGCUCCAUUGAAUGUAGUUUAUCAUG [A19C G133A G141U], for which the “polymerase ribozyme fitness (log ratio)” value was no more than -4.2.

With GGAUCUUCUCGAUCUAACGAAAAAGACGAAUCUGCCAUAAAGCUUGAGCGCAUCUUCAGAUGCAAAGGCGGCAGCAUUCGGUGGCGCGAUAGGGCCAACGUUCUCAACUAUGACACGCAAAACGCGUGCUCCGUUGAAUGGAGUUUAUCAUG [A19G A28G C38U A49C G58A G65A C76A C93G], the “polymerase ribozyme fitness (log ratio)” value is no more than -4.2.

For the variant GGAUCUUCUCGAUCUAACGUAAAAGACAAAUCUGCCCCAAAGCUUGAGAGCAUCAUCGGAUGCAGAGGCGGCAGCCUUCGGUGGCGCGAUGGCGCCAACGUUCUCAACUCUGACACGCAAAACGCGUGCUCCGUUGAAUGGAGUUUAUCAUG [A19G A20U A37C U55A A91G A110C], the “polymerase ribozyme fitness (log ratio)” value was no more than -4.2.

Consider GGAUCUUCUCGAUCUAACCAAAAAGACAAAGCUGCCACACAGCUUGAGAGCAUCUUCGGAUGCAGAGGCGGCAGCCUUCGGUCUCGCGAUAGCGCCAACGUUCUCAAGUAUGACACGCAAAACGCGUGCUCCGUUGAAUGGAGUUUAUCAUG [A19C U31G A40C G83C G84U C108G], for which the “polymerase ribozyme fitness (log ratio)” value was no more than -4.2.

In the case of GGAUCUUCUCGAUCUAACGAAAAAGACAAAUCUGCCACAUAGCUUGAGAGCAUCUUCGGAUUCAGAGGCGGCAGCCUUCGGUGGCGCGAUAGCGCCAACGUUCUCAACUAUGACACGCAAUACGCGUGCUCCGUUGAAUGUAGUUUAUCAUG [A19G A40U G62U A121U G141U], the “polymerase ribozyme fitness (log ratio)” value is -1.46.

Regarding GGAUCUUCUCGAUCUAACCAAAAAGACAAAUCUGCCACAAAGCUUGAGAGCAUCAUCGGAUGCAGAGGCGGCAGCCUUCGGUGGCGCGAUAGCGCCAACGUUCUCAACUAUGACACGCAAAAGGAGUGCUCCGUUGAAUGGAGUUUAGCAUG [A19C U55A C123G C125A U148G], the “polymerase ribozyme fitness (log ratio)” value is no more than -4.2.

With GGAUCUUCUCGAUCUAACGAAAAAGACAAAUCUGCCGCAAAGCUUGAGAGCAGCUUCGGAUGCAGAGGCGGCAGCCUUCGGUGGCGCGAUAGCGCUAACGUUCUCAACUAUGACACGCAAAACGCGUGCUCCGUUGAAUGGAGUUUAUCAUG [A19G A37G U53G C96U], the “polymerase ribozyme fitness (log ratio)” value is no more than -4.2.

Consider GGAUCUUCUCGAUCUAACCAAAAAGACAAAUCUGCCACAAAGCUUGAGAGCAUCUUCGGAUGCAGAGGCGGCAGCCUUCGGUGGCGCGAGAGAGCCAACGUUCUCAUCUAUGACACGCAAAACGCGUGCUCCGUUGAAUGGAGUUUAUCAUG [A19C U90G C93A A107U], for which the “polymerase ribozyme fitness (log ratio)” value was no more than -4.2.

For GGAUCUUCUCGAUCUAACCAAAAAGACAAAUCUGCCACAAAGCGUGAGACCAUCUUCGGAUGCAGACGCGGCAGCCUUCGGUGGCGCGAUAGCGCCAACGUUCACAACUAUGACACGCAAAACGCGUGCUCCGUUGAAUGGAUUUUAUCAUG [A19C U44G G50C G67C U104A G143U], the “polymerase ribozyme fitness (log ratio)” value is no more than -4.2.

On to GGAUCUUCUCGAUCUAACGAAAAAGACAAAUCUGCCACAACGUUUGAGAGCAUGUUCGGAUGAAGAGGCGGCAGCGUUCGGUGGCGCGAUAGCGCCAACGUUCUCAACUAUGACACGCAAAACGCGUGCUCCGUUGAAUGGAGUUUAUCAUG [A19G A41C C43U C54G C63A C76G], for which the “polymerase ribozyme fitness (log ratio)” value was no more than -4.2.

As to GGAUCUUCUCGAUCUAACCAAAAAGACAAAUCUGCCACAAAGCUUGAGAGCAUCUUCGGAUGCAGAGGCGGCAGCCUACGGUGGCGCGAUAGCGCCAACGUUCUCAACUAUGACACGCAAAACGGGUGCUCCGUUGAAUGGAGUUUAUCAUG [A19C U78A C125G], the “polymerase ribozyme fitness (log ratio)” value was no more than -4.2.

On to GGAUCUUCUCGAUCUAACGAAAUAGACAAAUCUGCCACAAAGCUUGAGAGCAUCUUGGGAUGCAGAGGCGGCAGCCUUCGGUGUCGCGAUAGGCCCAACGUUCUCAACUAUGACACGCAAAUCGCGUGCUCCGUUGAAUGGCGUUUAUCAUG [A19G A23U C57G G84U C93G G94C A122U A142C], for which the “polymerase ribozyme fitness (log ratio)” value is no more than -4.2.

Turning to GGAUCUUCUCGAUCUAACGAAAAAGACAGAUCUGCCACAAAGCUUGAGAGCAUCUUCGGAUGCAGAGGCGGCAGCCUUCGGUGGCGCGAUAACGCCAACGUUCUCAACUAUGACAGGCAAAACGCGUGCUCCGUUGAAUGGAGUUUAUCAUG [A19G A29G G92A C116G], the “polymerase ribozyme fitness (log ratio)” value was -3.8.

For GGAUCUUCUCGAUCUAACGAAAAAGACAGAUCUGCCAAAAAGCUUGAGAGCAACUUCGGAUGCAGAGGCGGCAGCUUUCGGUGGCUCGAUAGCGCCAAUGUUCUCAACUAUGACACGCAAAACGCGUGCUCCGUUGAAUGGAGUUUAUCAUG [A19G A29G C38A U53A C76U G86U C99U], the “polymerase ribozyme fitness (log ratio)” value is no more than -4.2.
